According to the supplement of paper PMC12067093, “Discovery and optimisation of a covalent ligand for TRIM25 and its application to targeted protein ubiquitination” (Chemical Science, 2025):
The full data set covers some 21,000 targets. This sample favours those with the largest changes.

Compound: Cc1cc(ccc1-c1ccccc1)C(=O)N1CCCN(CC1)C(=O)CCl [compound 10]
Experiment: probe-labelled cysteine peptide fold change vs DMSO (competition) (log2 fold change); higher = less target engagement (more negative = stronger competition)
Conditions: THP-1, incubation time: 4 h
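Further: competitive profiling in live THP-1 cells: cysteine peptides tagged with an iodoacetamide desthiobiotin (IA-DTB) probe, intensity after compound treatment relative to DMSO-treated cells.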

UniProt Q9Y3P9, sequence (Q9Y3P9 whole entry, looked up): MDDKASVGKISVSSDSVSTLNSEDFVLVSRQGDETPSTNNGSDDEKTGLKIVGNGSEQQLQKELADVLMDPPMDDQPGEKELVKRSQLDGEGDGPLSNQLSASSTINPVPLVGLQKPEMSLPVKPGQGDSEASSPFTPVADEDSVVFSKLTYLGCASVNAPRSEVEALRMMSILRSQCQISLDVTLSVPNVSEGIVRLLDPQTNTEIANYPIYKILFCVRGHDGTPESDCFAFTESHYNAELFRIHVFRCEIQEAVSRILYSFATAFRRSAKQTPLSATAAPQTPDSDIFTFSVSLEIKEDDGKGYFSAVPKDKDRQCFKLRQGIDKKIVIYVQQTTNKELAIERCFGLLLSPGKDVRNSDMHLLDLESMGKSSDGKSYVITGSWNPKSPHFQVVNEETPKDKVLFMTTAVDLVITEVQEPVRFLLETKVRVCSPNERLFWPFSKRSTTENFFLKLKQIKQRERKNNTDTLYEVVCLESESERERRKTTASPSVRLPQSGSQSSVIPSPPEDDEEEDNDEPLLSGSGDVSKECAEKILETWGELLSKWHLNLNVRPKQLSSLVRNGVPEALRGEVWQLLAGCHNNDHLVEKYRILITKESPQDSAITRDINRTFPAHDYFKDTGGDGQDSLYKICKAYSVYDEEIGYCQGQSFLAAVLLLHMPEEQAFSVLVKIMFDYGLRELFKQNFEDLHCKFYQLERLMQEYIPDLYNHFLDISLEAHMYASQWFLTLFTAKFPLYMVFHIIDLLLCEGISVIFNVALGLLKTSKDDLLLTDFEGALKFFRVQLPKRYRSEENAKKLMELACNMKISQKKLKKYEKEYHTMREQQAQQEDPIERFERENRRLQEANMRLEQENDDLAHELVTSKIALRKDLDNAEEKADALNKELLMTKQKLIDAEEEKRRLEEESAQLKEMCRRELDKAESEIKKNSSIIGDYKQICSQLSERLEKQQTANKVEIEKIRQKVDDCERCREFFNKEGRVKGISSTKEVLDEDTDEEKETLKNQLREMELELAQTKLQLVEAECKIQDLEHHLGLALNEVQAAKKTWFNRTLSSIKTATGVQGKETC
UniProt Q99873, sequence (Q99873 whole entry, looked up): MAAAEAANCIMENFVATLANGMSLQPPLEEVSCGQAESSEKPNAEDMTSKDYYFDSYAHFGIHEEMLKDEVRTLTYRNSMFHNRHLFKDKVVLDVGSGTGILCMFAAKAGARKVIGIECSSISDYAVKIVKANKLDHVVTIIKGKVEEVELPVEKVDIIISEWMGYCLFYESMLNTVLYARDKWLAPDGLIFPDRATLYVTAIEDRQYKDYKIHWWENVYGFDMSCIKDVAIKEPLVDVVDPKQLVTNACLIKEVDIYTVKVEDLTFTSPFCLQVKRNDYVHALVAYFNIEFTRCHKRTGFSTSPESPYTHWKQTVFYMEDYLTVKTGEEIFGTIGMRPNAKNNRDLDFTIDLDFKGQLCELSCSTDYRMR
UniProt Q15283, sequence (Q15283 whole entry, looked up): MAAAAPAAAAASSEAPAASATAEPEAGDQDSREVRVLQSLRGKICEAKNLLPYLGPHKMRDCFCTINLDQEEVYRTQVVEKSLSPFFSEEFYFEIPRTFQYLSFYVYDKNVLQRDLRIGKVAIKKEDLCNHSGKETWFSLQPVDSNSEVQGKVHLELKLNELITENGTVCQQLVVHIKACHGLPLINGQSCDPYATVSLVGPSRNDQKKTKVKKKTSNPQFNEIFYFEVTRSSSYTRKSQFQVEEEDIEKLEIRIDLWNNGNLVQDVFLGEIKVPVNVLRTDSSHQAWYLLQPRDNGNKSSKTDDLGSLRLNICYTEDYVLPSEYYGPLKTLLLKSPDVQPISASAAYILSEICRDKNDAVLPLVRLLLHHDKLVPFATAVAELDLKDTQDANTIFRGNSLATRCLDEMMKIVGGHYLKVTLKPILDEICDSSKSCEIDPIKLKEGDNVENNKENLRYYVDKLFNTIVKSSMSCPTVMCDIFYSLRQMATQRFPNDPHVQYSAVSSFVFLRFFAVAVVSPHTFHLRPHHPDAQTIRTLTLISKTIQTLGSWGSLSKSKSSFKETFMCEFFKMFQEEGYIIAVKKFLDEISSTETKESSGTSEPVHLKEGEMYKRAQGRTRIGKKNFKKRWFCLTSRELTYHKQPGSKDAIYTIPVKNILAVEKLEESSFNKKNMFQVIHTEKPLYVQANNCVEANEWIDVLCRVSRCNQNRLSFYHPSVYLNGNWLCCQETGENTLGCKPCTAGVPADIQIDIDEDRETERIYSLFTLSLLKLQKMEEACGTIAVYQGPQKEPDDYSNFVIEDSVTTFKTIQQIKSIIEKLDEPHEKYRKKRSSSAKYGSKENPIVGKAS
UniProt Q86TP1, sequence (Q86TP1 whole entry, looked up): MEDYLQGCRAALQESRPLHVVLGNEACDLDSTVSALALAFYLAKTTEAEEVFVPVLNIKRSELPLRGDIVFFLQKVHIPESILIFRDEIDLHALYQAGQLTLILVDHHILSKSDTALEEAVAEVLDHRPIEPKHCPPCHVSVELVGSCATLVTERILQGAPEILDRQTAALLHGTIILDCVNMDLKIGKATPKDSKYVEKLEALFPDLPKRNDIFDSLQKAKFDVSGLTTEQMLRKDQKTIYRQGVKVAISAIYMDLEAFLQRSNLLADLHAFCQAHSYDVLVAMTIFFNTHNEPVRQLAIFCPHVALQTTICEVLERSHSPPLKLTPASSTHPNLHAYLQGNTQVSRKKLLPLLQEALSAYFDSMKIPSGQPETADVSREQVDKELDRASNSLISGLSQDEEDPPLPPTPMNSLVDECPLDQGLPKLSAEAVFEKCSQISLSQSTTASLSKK
UniProt Q8N8N7, sequence (Q8N8N7 whole entry): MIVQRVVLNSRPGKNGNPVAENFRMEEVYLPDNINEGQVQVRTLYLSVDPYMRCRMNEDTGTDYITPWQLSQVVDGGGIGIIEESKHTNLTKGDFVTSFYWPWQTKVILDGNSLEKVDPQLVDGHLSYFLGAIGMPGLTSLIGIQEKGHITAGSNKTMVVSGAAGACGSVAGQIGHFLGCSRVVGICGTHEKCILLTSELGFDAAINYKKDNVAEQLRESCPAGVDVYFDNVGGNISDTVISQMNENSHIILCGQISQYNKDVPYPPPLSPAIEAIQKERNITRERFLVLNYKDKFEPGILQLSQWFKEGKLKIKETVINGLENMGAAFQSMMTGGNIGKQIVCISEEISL
UniProt Q9UNM6, sequence (Q9UNM6 whole entry, looked up): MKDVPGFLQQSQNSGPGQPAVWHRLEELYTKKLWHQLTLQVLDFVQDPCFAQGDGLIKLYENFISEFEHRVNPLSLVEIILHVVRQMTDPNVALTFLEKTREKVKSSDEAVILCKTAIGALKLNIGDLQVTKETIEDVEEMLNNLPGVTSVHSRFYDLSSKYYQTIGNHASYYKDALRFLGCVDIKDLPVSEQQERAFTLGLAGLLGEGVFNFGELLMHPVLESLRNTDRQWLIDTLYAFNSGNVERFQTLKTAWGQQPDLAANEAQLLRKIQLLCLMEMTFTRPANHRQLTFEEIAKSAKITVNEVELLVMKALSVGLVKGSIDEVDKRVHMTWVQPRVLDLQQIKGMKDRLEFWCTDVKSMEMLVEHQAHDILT
UniProt O43586, sequence (O43586 whole entry, looked up): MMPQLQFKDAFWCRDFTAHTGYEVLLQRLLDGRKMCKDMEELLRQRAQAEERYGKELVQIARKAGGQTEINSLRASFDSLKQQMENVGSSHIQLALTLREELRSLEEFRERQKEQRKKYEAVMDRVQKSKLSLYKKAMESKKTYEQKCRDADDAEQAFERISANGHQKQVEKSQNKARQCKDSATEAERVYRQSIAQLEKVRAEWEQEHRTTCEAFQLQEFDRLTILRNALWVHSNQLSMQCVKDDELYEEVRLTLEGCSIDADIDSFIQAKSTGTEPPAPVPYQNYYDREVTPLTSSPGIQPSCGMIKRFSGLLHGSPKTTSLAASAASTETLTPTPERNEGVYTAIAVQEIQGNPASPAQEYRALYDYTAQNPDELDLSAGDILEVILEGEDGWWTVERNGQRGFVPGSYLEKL
UniProt O75400, sequence (O75400 whole entry, looked up): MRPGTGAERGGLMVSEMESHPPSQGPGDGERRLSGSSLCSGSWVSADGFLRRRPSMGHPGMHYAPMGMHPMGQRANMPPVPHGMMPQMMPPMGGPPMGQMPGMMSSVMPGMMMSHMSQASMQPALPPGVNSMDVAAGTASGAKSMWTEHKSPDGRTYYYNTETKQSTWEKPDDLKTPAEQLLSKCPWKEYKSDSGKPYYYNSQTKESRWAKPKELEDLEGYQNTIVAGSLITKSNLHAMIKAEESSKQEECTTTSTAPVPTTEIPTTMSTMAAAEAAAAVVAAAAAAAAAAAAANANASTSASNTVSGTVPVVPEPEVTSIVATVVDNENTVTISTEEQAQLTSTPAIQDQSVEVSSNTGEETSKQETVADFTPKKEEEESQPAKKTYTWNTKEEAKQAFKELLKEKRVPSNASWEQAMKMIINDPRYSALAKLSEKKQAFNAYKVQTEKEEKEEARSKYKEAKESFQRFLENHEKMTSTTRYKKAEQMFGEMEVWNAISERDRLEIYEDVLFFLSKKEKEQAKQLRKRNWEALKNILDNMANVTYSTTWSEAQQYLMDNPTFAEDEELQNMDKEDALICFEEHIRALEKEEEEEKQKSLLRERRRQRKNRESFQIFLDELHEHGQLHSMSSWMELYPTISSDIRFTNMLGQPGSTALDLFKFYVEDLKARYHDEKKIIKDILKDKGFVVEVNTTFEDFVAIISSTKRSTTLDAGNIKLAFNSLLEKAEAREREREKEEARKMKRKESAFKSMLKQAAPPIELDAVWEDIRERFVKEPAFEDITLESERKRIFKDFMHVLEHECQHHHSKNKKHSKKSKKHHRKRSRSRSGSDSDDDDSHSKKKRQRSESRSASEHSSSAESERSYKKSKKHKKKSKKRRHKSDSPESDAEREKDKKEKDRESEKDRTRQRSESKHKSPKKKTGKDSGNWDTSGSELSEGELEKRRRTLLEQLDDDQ

Q: How did the “probe-labelled cysteine peptide fold change” value (10 µM) turn out when “PSTPIP1_O43586_259_LTLEGCSIDADIDSFIQAK (UniProt O43586)” was run?
A: -0.0615

Q: And the “probe-labelled cysteine peptide fold change” value (50 µM)?
A: 0.115

Q: “RAC2_P15153_105_HHCPSTPIILVGTK (UniProt P15153)” was tested. Which “probe-labelled cysteine peptide fold change” value (10 µM) did it give?
A: 0.12

Q: What about the “probe-labelled cysteine peptide fold change” value (50 µM) of the same target?
A: -0.0654

Q: For “PRR14L_Q5THK1_1730_SSSSDCTTESSR (UniProt Q5THK1)”, which “probe-labelled cysteine peptide fold change” value (10 µM) is on record?
A: -0.269

Q: What about the “probe-labelled cysteine peptide fold change” value (50 µM) of the same target?
A: -1.09

Q: Which results are given for “RARS2_Q5T160_489_LHSLEETFGCGYLNDFNTACLQEPQSVSILQHLLR (UniProt Q5T160)”?
A: probe-labelled cysteine peptide fold change (10 µM): 0.336; probe-labelled cysteine peptide fold change (50 µM): 1.34

Q: “RBM25_P49756_110_CGLVLSWK (UniProt P49756)” was tested. Which “probe-labelled cysteine peptide fold change” value (10 µM) did it give?
A: -0.0205

Q: And the “probe-labelled cysteine peptide fold change” value (50 µM)?
A: 0.193

Q: For “RBBP5_Q15291_73_IISAHIHPVCSLCWSR (UniProt Q15291)”, which “probe-labelled cysteine peptide fold change” value (10 µM) is on record?
A: 0.147

Q: And the “probe-labelled cysteine peptide fold change” value (50 µM)?
A: 0.294

Q: With “RECQL_P46063_606_AESSQTCHSEQGDK (UniProt P46063)” as the target, how does the “probe-labelled cysteine peptide fold change” value (10 µM) read?
A: -0.0722

Q: What about the “probe-labelled cysteine peptide fold change” value (50 µM) of the same target?
A: -0.2

Q: With “PTGR2_Q8N8N7_187_VVGICGTHEK (UniProt Q8N8N7)” as the target, how does the “probe-labelled cysteine peptide fold change” value (10 µM) read?
A: 0.237

Q: What about the “probe-labelled cysteine peptide fold change” value (50 µM) of the same target?
A: 0.105

Q: Which results are given for “PRPF40A_O75400_580_EDALICFEEHIR (UniProt O75400)”?
A: probe-labelled cysteine peptide fold change (10 µM): 0.225; probe-labelled cysteine peptide fold change (50 µM): 0.566

Q: What does the source list for “QTRT2_Q9H974_324_KIETTGCNQEITSFEINLK (UniProt Q9H974)”?
A: probe-labelled cysteine peptide fold change (10 µM): -0.295; probe-labelled cysteine peptide fold change (50 µM): -0.596

Q: “PSMD13_Q9UNM6_276_KIQLLCLMEMTFTRPANHR (UniProt Q9UNM6)” was tested. Which “probe-labelled cysteine peptide fold change” value (10 µM) did it give?
A: -0.226

Q: And the “probe-labelled cysteine peptide fold change” value (50 µM)?
A: 0.0422

Q: Which “probe-labelled cysteine peptide fold change” value (10 µM) does the source give for RLF_Q13129_1364_KIFACK (UniProt Q13129) here?
A: -0.197

Q: And the “probe-labelled cysteine peptide fold change” value (50 µM)?
A: -1.12

Q: Which “probe-labelled cysteine peptide fold change” value (10 µM) does the source give for “RABGAP1_Q9Y3P9_1026_LQLVEAECK (UniProt Q9Y3P9)” here?
A: -0.0579

Q: What about the “probe-labelled cysteine peptide fold change” value (50 µM) of the same target?
A: -0.0694

Q: What does the source list for “PRMT1_Q99873_226_IHWWENVYGFDMSCIK (UniProt Q99873)”?
A: probe-labelled cysteine peptide fold change (10 µM): 0.104; probe-labelled cysteine peptide fold change (50 µM): -0.0579

Q: Which “probe-labelled cysteine peptide fold change” value (10 µM) does the source give for “PRKDC_P78527_1904_INQVFHGSCITEGNELTK (UniProt P78527)” here?
A: -0.0536

Q: What about the “probe-labelled cysteine peptide fold change” value (50 µM) of the same target?
A: -0.375

Q: With “RASA2_Q15283_436_SCEIDPIK (UniProt Q15283)” as the target, how does the “probe-labelled cysteine peptide fold change” value (10 µM) read?
A: -0.276

Q: What about the “probe-labelled cysteine peptide fold change” value (50 µM) of the same target?
A: -0.0813

Q: Which “probe-labelled cysteine peptide fold change” value (10 µM) does the source give for “RMND1_Q9NWS8_310_FAFSNALCLSVK (UniProt Q9NWS8)” here?
A: -0.0469

Q: What about the “probe-labelled cysteine peptide fold change” value (50 µM) of the same target?
A: 0.0287

Q: How did the “probe-labelled cysteine peptide fold change” value (10 µM) turn out when “PTGS2_P35354_299_EHNRVCDVLK (UniProt P35354)” was run?
A: -0.078

Q: And the “probe-labelled cysteine peptide fold change” value (50 µM)?
A: -0.759

Q: Which results are given for “PRUNE1_Q86TP1_313_QLAIFCPHVALQTTICEVLER (UniProt Q86TP1)”?
A: probe-labelled cysteine peptide fold change (10 µM): 0.0245; probe-labelled cysteine peptide fold change (50 µM): 0.0781

Q: What does the source list for “RAP1GAP2_Q684P5_584_CDSTSSTPK (UniProt Q684P5)”?
A: probe-labelled cysteine peptide fold change (10 µM): -0.117; probe-labelled cysteine peptide fold change (50 µM): -0.552
